Experimental data as given in US9745597B2, “Compositions and methods for controlling fungal and bacterial diseases in plants” (priority 2014, dated 2017).

Experiments:
[1] = system: Plasmopara viticola; assay: Grape downy mildew bioassay (Example 2)
Protocol: The present study investigated the efficacy against a variety of plant pathogens of the commercial product, […]® ASO (Bacillus subtilis QST713 fermentation product), with and without GENAPOL® LRO (sodium C12/C14-fatty alcohol diglycol ether sulfate). The application rates of […]® ASO refer to the amount of (1.67%) Bacillus subtilis QST713 contained in the product […]® ASO.
® ASO was diluted in water to concentrations of 1000 ppm, 500 ppm, 250 ppm, and 125 ppm and applied to plants with or without GENAPOL® LRO applied at a concentration of 3000 ppm. Subsequently, the plants were inoculated with the various plant pathogens and scored for percent disease control with the following eight plant pathogen bioassays: (1) tomato late blight, Phytophthora infestans (“Late Blight”); (2) grape downy mildew, Plasmopara viticola (“Downy Mildew”); (3) cucumber powdery mildew, Sphaerotheca fuliginea (“Powdery Mildew”); (4) apple scab, Venturia inaequalis (“Scab”); (5) tomato early blight, Alternaria solani (“Early Blight”); (6) brown rust of snap bean, Uromyces appendiculatus (“Bean Rust”); (7) Asian soybean rust, Phakopsora pachyrhizi (“Soy Rust”); and (8) Botrytis grey mould on snap beans, Botrytis cinerea (“Grey Mould”).

[2] = system: Venturia inaequalis; assay: Field trial with apple trees infected with Venturia inaequalis (Example 4); assay type: in vivo; settings: dosage 0.3%; 10 applications; 11 days after final application
Protocol: A field trial was conducted with apple trees that were naturally infected with the causal agent of scab, Venturia inaequalis. 10 treatments with an application volume of 1000 L/ha at 2 m cph were done between April 23 and June 30 at a growth stage of BBCH62 to BBCH77 in 5 to 11 days interval as outlined in Table 10.

“sodium C12/C14-fatty alcohol diglycol ether sulfate [GENAPOL ® LRO]” was tested, and the “Efficacy in % Found” value ([1]; Downy Mildew, rate 3000 ppm) was 59%, the “Percent Disease Control Downy Mildew” value ([1]; GENAPOL LRO 3000 ppm) was 59% and the “Disease Control [%] Found” value [2] was 11%.
